The supplement of paper PMC10126150
Sequences with one replicate were seen in a single cluster, so their values are uncertain.

What follows are sequences tested on ATP (assay: switch fluorescence ratio, 500 uM ATP over buffer (Cy3 cluster intensity, sum of 5 cycles each) (fold (ratio)); higher = stronger signal-on switching upon ATP binding; sequences stand for … in TCGTCGGCAGCGTCAGATGTGTATAAGAGACAGTTTTTTTTTTTTTTTTTTTTTTTTT…TC). Details: aptamer strand: ATP DNA aptamer (quencher-CACCTGGGGGAGTATTGCGGAGGAAGG + anchor), 100 nM annealed; ATP concentration: 500 uM; one replicate.
Method in brief: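 Switching-strand clusters labelled with Cy3 on a modified Illumina MiSeq flow-cell were annealed to 100 nM quencher-labelled ATP aptamer, imaged in selection buffer, and re-imaged after 15 min with 500 uM ATP at 22 °C. This was done over five cycles with NaOH stripping and re-annealing in between. The fluorescence ratio is summed target-cycle over summed buffer-cycle Cy3 intensity per cluster, averaged per switch-domain sequence, excluding clusters outside 100-1000 RFU.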
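Also: ATP exposure 15 min at 22 °C before imaging.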

Row | Sequence | switch fluorescence ratio
1 | CAGCTCGACC | 1.19
2 | GTTTGTAGAA | 1.02
3 | CTTAAGGTTT | 1.01
4 | TAGGTATCGC | 0.982
5 | AAAGCCTCGG | 1
6 | GTATGCACGG | 0.925
7 | ATCTCTATTT | 1.05
8 | TACGAGAACA | 1.02
9 | ACTGCACCC | 1.53
10 | AGGCAATTTA | 0.999
11 | TCTAAGACGG | 0.983
12 | TCATTGCTGC | 1
13 | GATGAGAAAA | 1.08
14 | CGCTTCTTCA | 1.03
15 | GGCTTCACCG | 1.12
16 | GACCTAACAA | 1
17 | ATAGGACAAA | 1.01
18 | CGCCTCTGT | 0.999
19 | ACTCTCTGGC | 1.21
20 | TGCGCAAAGA | 1.05
21 | AGTTTTGGGA | 1.01
22 | CGCGTTCCTT | 1.03
23 | TGATAGTATT | 1.04

Row | Sequence | switch fluorescence ratio
24 | GGGGGCGAAC | 1.01
25 | AGAAGGTTTT | 0.957
26 | CGAAAAAGCT | 1.02
27 | ATTTATCAGT | 0.952
28 | AAGCTATTT | 0.996
29 | CGGGGTAGCA | 1.11
30 | AGTAGCCTG | 1.05
31 | TATACGTATA | 1.05
32 | GGCGGGGTCA | 1.02
33 | TTGACGGGCG | 1.1
34 | CCAAGGTGCA | 1.8
35 | GGCTACAGGT | 0.975
36 | CCTTGCCAGG | 1.43
37 | TACACTATTG | 1
38 | CGTGGCTTAG | 0.957
39 | CTGTGTTACG | 0.967
40 | GGACACACTG | 1.06
41 | GGGTACGCCC | 1.05
42 | CACTTGTATT | 1
43 | TAGGTATCTC | 0.983
44 | CCCATCGTAC | 1.51
45 | GAGCGCCTTA | 1.03
46 | GAAGGGATCG | 1.01

Row | Sequence | switch fluorescence ratio
47 | AGATCAACAT | 1.03
48 | AATAGGTGAT | 1.03
49 | TTTTGGGAA | 0.993
50 | CACCACTATC | 1.14
51 | GAGGCGTTA | 0.971
52 | GGGCCCCGTC | 1.02
53 | ATAAATTTTA | 1
54 | ATAATGGAGG | 0.967
55 | ATGCGGGAGT | 1.03
56 | ATAGCAAGTT | 1.06
57 | TCTACAATAT | 1.09
58 | AGCTGAGGTC | 1.03
59 | ATGAGTGTTC | 1
60 | TGCAGTATGC | 0.939
61 | CGCAGGATCC | 1.16
62 | TAGTACAAAA | 0.974
63 | GGAAAGGGTC | 1.02
64 | ACTTGGACGG | 1.1
65 | ATTGTAAGCA | 1.04
66 | TGTTCCTGTG | 1.01
67 | GCGGTTGCG | 0.939
68 | TCACAATGCA | 0.998
69 | GTGAGATTCA | 1.03

Row | Sequence | switch fluorescence ratio
70 | GGGCTAAACA | 0.995
71 | CGCGCGCATA | 1.44
72 | ACCTCTATCG | 1.01
73 | ACGAGTCTAT | 1.04
74 | GAACTGAGTA | 1
75 | TCGTTGCTTG | 1.05
76 | CAAATAGGGA | 0.991
77 | GTGCAGGTTT | 1.02
78 | GTTCGCGACC | 1
79 | AGAAGACCTT | 1.09
80 | GAGATTCAGC | 1.03
81 | GCTCTGGGTT | 1.02
82 | ACTCTTGGGA | 1
83 | GCTCTTACAT | 0.985
84 | AACGTGTAGG | 0.994
85 | CATGCTCCAT | 0.993
86 | GGTGTCCTAG | 0.995
87 | CCGGCGGTCG | 1.01
88 | ACTTCGGACG | 1.27
89 | CTGTATACTA | 1.03
90 | TTCTAGCTGA | 0.957
91 | ATAACGTTCT | 1.03
92 | AAAAAGTGTC | 0.968

Row | Sequence | switch fluorescence ratio
93 | GCTTCATGTT | 0.959
94 | CACAAATGGA | 0.957
95 | TCTTCGTCAT | 1.28
96 | TTAAGGTACT | 1.03
97 | CGGAACGGTT | 1.01
98 | GCTAGCCTCC | 1.34
99 | AGTCAACTTA | 1.02
100 | TATGACGGGC | 1.1
101 | GAATGGTTCA | 1.04
102 | GAGGCCTAGT | 0.975
103 | TGCAGACACG | 1.08
104 | TATCATAGTA | 0.989
105 | ACACGACGAT | 1.17
106 | ATGACCAGTG | 0.98
107 | TGGTGGCACT | 0.998
108 | AGTCTTGGG | 1.04
109 | GGTGCATTAA | 1.11
110 | GGAAGTACAA | 1.25
111 | TTCAGAGCCC | 1.04
112 | TACGGACTGT | 1.16
113 | CGTCGGTACA | 1.02
114 | TAAGCGAAAT | 0.99
115 | ATGGCGGACT | 0.943

Row | Sequence | switch fluorescence ratio
116 | ATACATTAGG | 1.02
117 | CCGGACCTTT | 1.06
118 | AGTACTTCCG | 1
119 | CAGGTGTGTG | 1.18
120 | AGAGTGTGT | 1.01
121 | TTATGTTTGA | 0.96
122 | AGTATAATGC | 1.02
123 | TCGTTATGAA | 0.994
124 | AGGCTACACG | 0.982
125 | TGCCTGAGGG | 1.01
126 | ACTGCAGTCG | 1
127 | ATGTCTAGTG | 1.17
128 | GCACTGTTCG | 0.959
129 | TGTCACCATT | 1.06
130 | TGGAAAAAGT | 0.991
131 | CCGGATGGGC | 1.08
132 | AGCAGTGTGA | 1.05
133 | GCGTGCTGGG | 0.968
134 | TCGTACAATT | 1.03
135 | AATCATTAGA | 0.955
136 | GGACTGCAGT | 1.07
137 | ACGTTCTAAA | 1.01
138 | CTGTGCGGCC | 1.05

Row | Sequence | switch fluorescence ratio
139 | GTTTTCAGAG | 0.997
140 | ATTGTTGCTA | 1.04
141 | GCGTGTGTAG | 1.02
142 | GGCTACTATA | 1.05
143 | TAGAGGATAG | 0.99
144 | TGGTTTAAAC | 1.02
145 | TGGCATCGGT | 1.03
146 | ATCGGAGTG | 1
147 | TCTTGTCTTT | 0.983
148 | GCTGGAGTCG | 0.997
149 | GGGAGAGAGA | 1.04
150 | ACGCCTGGTA | 1.02
151 | TTACGTGGTG | 1.05
152 | CTACATATTG | 1.04
153 | GTCTTTGTCT | 0.977
154 | TAAGGGATTT | 0.985
155 | TGGTAATGCT | 1.01
156 | GATCGATGTA | 0.941
157 | CTGACGCCTT | 2.63
